The assay can be described thus: qHTS Assay for Lipid Storage Modulators (AID 1519). The conditions noted are these: Drosophila S3 cells, BODIPY lipid droplet/cell ratio, laser cytometry, cells loaded with oleic acid. The method in brief: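 Cells seeded at 5,000 per well were treated with compounds over a concentration series and loaded with oleic acid (400 uM, as added). Lipid droplet fluorescence (488 nm excitation, 500-530 nm channel) was read by laser-scanning cytometry and normalized to 20 uM Triacsin C.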

Where [1] appears, read: measured here: cell count channel max response.
Setting [2] is: measured here: cell number channel AC50.
Where [3] appears, read: measured here: lipid (BODIPY) channel AC50.
Where [4] appears, read: measured here: lipid channel max response.

The source of these data is PubChem BioAssay (NCATS).

The other results are listed elsewhere or left out. These are further read-outs of the screen, such as a control signal, another cell line or another target. No call is given for them. Compounds called inactive in the main read-out are mostly missing here. Potencies come from curve fits of mixed quality, noted in brackets.

As usually defined, the AC50 is the concentration at which the activity in the assay is half-maximal.
Tags describe the fitted curve by direction and shape.

`CN(C)c1ccc(-c2nc(NCCc3cnc[nH]3)c3ccccc3n2)cc1`: the max response under setting [1] is 23.5% and the max response under setting [4] was found to be 28.9%. The AC50 runs as follows: under setting [2], 794 nM [rising, full curve, poor fit]; under setting [3], 1780 nM [rising, full curve, poor fit].

Turning to `COc1ccc(CNc2cc(-c3cccc(NS(C)(=O)=O)c3)ncn2)c(OC)c1`, the max response amounted to 35.9% under setting [1] and 44.7% under setting [4]. The AC50 is 2000 nM [rising, full curve, poor fit] under setting [2] and 3550 nM [rising, partial curve, poor fit] under setting [3].

Turning to `O=c1c(O)c(-c2ccc(O)c(O)c2)oc2c(OC[C@@H]3O[C@@H](O)[C@@H](O)[C@H](O)[C@H]3O)c(O)cc(O)c12`, the max response under setting [1] worked out at 63.1% and the max response under setting [4] worked out at 84.1%. In addition, the AC50 reads like this: under setting [2], 31600 nM [rising, partial curve, poor fit]; under setting [3], 31600 nM [rising, partial curve, poor fit].

`COc1cccc(-c2nc(NCc3ccccc3OC)c3ccccc3n2)c1`: the max response under setting [1] amounted to 33.4% and the max response under setting [4] was determined as 42%. The half-maximal activity concentration (AC50) under setting [2] was 35.5 nM [rising, full curve] and the concentration at half-maximal activity (AC50) under setting [3] is 35.5 nM [rising, full curve].

With `COc1cc2oc(-c3ccccc3)cc(=O)c2cc1O`, the max response came to 104% under setting [1] and 141% under setting [4]. Further, the AC50 runs as follows: under setting [2], 12600 nM [rising, partial curve]; under setting [3], 14100 nM [rising, partial curve].

`COCCn1c(=O)c(-c2ccc(OC)cc2)nc2cnc(OC)nc21`: the max response by setting is: under setting [1], 29.4%; under setting [4], 36.3%. In addition, the AC50 is, setting by setting: under setting [2], 14.1 nM [rising, full curve, poor fit]; under setting [3], 12.6 nM [rising, full curve, poor fit].

Consider `Clc1ccc2nc(-c3ccccc3)[nH]c2c1`, for which the max response under setting [1] is 87.1% and the max response under setting [4] was found to be 97.1%. Further, the AC50 under setting [2] is 1780 nM [rising, full curve] and the AC50 under setting [3] was 1580 nM [rising, full curve].

For the compound `Cn1ccc(O)c(C#N)c1=O`, the max response reads like this: under setting [1], 45%; under setting [4], 57.7%. For the same compound, the AC50 under setting [2] was 39800 nM [rising, single point] and the AC50 under setting [3] was 39800 nM [rising, single point].

As for `CN(C)c1ncc2nc(-c3cc(F)cc(F)c3)c(=O)n(CCc3ccccc3)c2n1`, the max response by setting is: under setting [1], 29.5%; under setting [4], 32.4%. Also, the AC50 was 631 nM [rising, full curve, poor fit] under setting [2] and 562 nM [rising, full curve] under setting [3].

For the compound `C[C@@](Cc1ccccc1)(NC(=O)CN)c1ccccc1`, the max response runs as follows: under setting [1], 73.8%; under setting [4], 97.7%. The AC50 runs as follows: under setting [2], 25100 nM [rising, partial curve]; under setting [3], 25100 nM [rising, partial curve].

With `Cc1cc(=O)cc2oc3cc(N)c(-c4c(C)cc(O)cc4O)c(C)c3nc1-2`, the max response was -35.1% under setting [1] and -32.9% under setting [4]. In addition, the concentration at half-maximal activity (AC50) was 70800 nM [falling, partial curve, poor fit] under setting [2] and 44700 nM [falling, partial curve, poor fit] under setting [3].

As to `CN1CCN(c2ncnc3ccc(-c4cccnc4)cc23)CC1`, the max response under setting [1] was 28.7% and the max response under setting [4] was found to be 31.3%. In addition, the AC50 runs as follows: under setting [2], 3160 nM [rising, full curve, poor fit]; under setting [3], 2510 nM [rising, full curve].

With `CS(=O)(=O)Nc1cccc(-c2nccc(Nc3ccc(F)cc3)n2)c1`, the max response by setting is: under setting [1], -0.958%; under setting [4], -6.01%. Also, the AC50 is, setting by setting: under setting [2], 794 nM [rising, full curve, poor fit]; under setting [3], 708 nM [rising, full curve, poor fit].

For `CN1C(C)(C)CCCC1(C)C`, the max response under setting [1] worked out at 40.8% and the max response under setting [4] worked out at 41.7%. For the same compound, the AC50 was 39800 nM [rising, single point] under setting [2] and 39800 nM [rising, single point] under setting [3].

As to `COc1cccc(-c2nc(NCc3ccc(OC)cc3OC)c3ccccc3n2)c1`, the max response worked out at 15.5% under setting [1] and 20.5% under setting [4]. In addition, the AC50 under setting [2] was 2820 nM [rising, single point] and the AC50 under setting [3] was 2820 nM [rising, partial curve, poor fit].

As to `COc1ccccc1-c1nccc(NCc2cccnc2)n1`, the max response is, setting by setting: under setting [1], 38.9%; under setting [4], 41.1%. Further, the AC50 under setting [2] was 6310 nM [rising, partial curve] and the concentration at half-maximal activity (AC50) under setting [3] is 3160 nM [rising, partial curve].

For `COc1ccc(-c2nc3cncnc3n(-c3ccccc3)c2=O)cc1`, the max response reads like this: under setting [1], 40.2%; under setting [4], 46.9%. Also, the AC50 under setting [2] was 7080 nM [rising, partial curve] and the AC50 under setting [3] is 5010 nM [rising, partial curve].

On to `CN(Cc1ccco1)c1ncncc1-c1cccnc1`, for which the max response amounted to 36.2% under setting [1] and 42.7% under setting [4]. For the same compound, the AC50 is, setting by setting: under setting [2], 251 nM [rising, full curve]; under setting [3], 282 nM [rising, full curve, poor fit].

Take `COCCn1c(=O)c(-c2ccc(F)cc2)nc2cnc(Oc3ccccc3)nc21`: the max response reads like this: under setting [1], 5.18%; under setting [4], 2.88%. The AC50 was 1120 nM [rising, full curve] under setting [2] and 794 nM [rising, full curve] under setting [3].

Consider `N#CCCn1c(=O)c(-c2ccccc2)nc2cnc(OCc3ccccc3)nc21`, for which the max response runs as follows: under setting [1], 7.84%; under setting [4], 11.6%. For the same compound, the AC50 runs as follows: under setting [2], 316 nM [rising, partial curve, poor fit]; under setting [3], 251 nM [rising, partial curve, poor fit].

Take `O=c1cc(-c2ccccc2O)oc2cc(O)cc(O)c12`: the max response stood at 29.6% under setting [1] and 36% under setting [4]. Also, the AC50 reads like this: under setting [2], 5620 nM [rising, full curve, poor fit]; under setting [3], 5620 nM [rising, full curve, poor fit].
